Results reported in patent publication US20230117205A1, “B7-H4 ANTIBODY-DRUG CONJUGATES FOR THE TREATMENT OF CANCER” (SEAGEN INC., priority 2021, published 2023).

What was measured:
Settings in all cases: 48 hours; 1 μg/mL ADC or mAb or 100 nM MMAE
SKBR3 cells [1] = assay: ATP release (CellTiter Glo on supernatants)
Procedure: (§1) SKBR3 cells were cultured in RPMI containing 10% fetal bovine serum (FBS) and penicillin/streptomycin (P/S) and passaged every 3-4 days at ˜1:5 dilution. On day 0, cells were collected with 0.05% Trypsin-EDTA (Gibco #25300-054), resuspended in complete media, and ˜120,000 cells in 1 mL media were added to each well of a 12-well plate (ThermoFisher Scientific #150628). The next day, the media from each well was removed and replaced with 1 mL of fresh media containing 1 μg/mL ADC or mAb or 100 nM MMAE. On day 3, 48 hours after treatment, media from each well of the 12-well plate was transferred to a 96-well, 2 ml plate (USA Scientific #18962800) and spun at 1500 rpm for 5 minutes (min) to remove cell debris and non-adherent “floating” cells. Then 200 mL of supernatants were transferred to a standard 96-well, round-bottom plate (ThermoFisher Scientific #163320). These supernatants were used immediately for the ATP assay (described below) or frozen at −20° C. for the HMGB1 assay (described below). […]
(§2) ATP release was evaluated as follows immediately after collection of supernatants as described above. […] The plates were mixed briefly, sealed, and analyzed on an Envision plate reader within 20 minutes following the addition of the CellTiter Glo. HMGB1 release was evaluated using the HMGB1 Express ELISA kit according to the manufacturer's protocol (Tecan #30164033).

SKBR3 cells [2] = assay: HMGB1 release (ELISA)
Procedure: as §1, §2

SKBR3 cells [3] = assay: Calreticulin exposure (flow cytometry); type: cell-based, human
Procedure: Calreticulin exposure was evaluated by flow cytometric staining as follows. Live/Dead (L/D) staining buffer [ThermoFisher Scientific #L10119] was prepared by reconstituting the dye in 50 μL of DMSO and transferring to a 50 mL conical containing 50 mL of PBS. The cells collected above were resuspended in 1 mL of freshly prepared L/D staining buffer and incubated for 20 min at room temperature (RT). Next, the cells were pelleted and washed twice with FACS buffer (PBS containing 2% FBS). Annexin V/Calreticulin/PI staining solution was prepared as follows: • FACS buffer (2% FBS/PBS)—90 μL per well • 10× Annexin V binding buffer (Fisher Scientific #BDB556454)—10 μL per well • Annexin V-FITC (Fisher Scientific #BDB556419)—2 μL per well • Calreticulin-A647 (Abcam #ab196159)—2 μL per well • PI (Propidium Iodide, ThermoFisher Scientific #R37169)—5 μL per well
Cells in each well were resuspended in 100 μL staining solution and incubated for 20 min at RT. Next, the cells were washed twice with 1 mL of FACS/Annexin V binding buffer (1×), resuspended in 250 μL FACS/Annexin V staining buffer, and analyzed on an Attune flow cytometer (ThermoFisher Scientific).

In the case of “SGN-B7H4V: ADC of fully human IgG1 anti-B7-H4 mAb conjugated to monomethyl auristatin E (MMAE) via a protease-cleavable valine-citrulline linker (vedotin)”, the ATP release (SKBR3 cells [1]) is reported as “led to the release of ATP”, the HMGB1 release (SKBR3 cells [2]) is reported as “release of ATP and HMGB1” and the “surface exposure of calreticulin” value (SKBR3 cells [3]) is reported as “surface exposure of calreticulin”.

With `CC[C@H](C)C([C@@H](CC(=O)N1CCC[C@H]1[C@H](OC)[C@@H](C)C(=O)N[C@H](C)[C@@H](O)c1ccccc1)OC)N(C)C(=O)[C@@H](NC(=O)[C@@H](NC)C(C)C)C(C)C` (stereo partly drawn) [MMAE, monomethyl auristatin E, reference compound] the ATP release (SKBR3 cells [1]) was “led to the release of ATP”, the HMGB1 release (SKBR3 cells [2]) was “release of ATP and HMGB1” and the “surface exposure of calreticulin” value (SKBR3 cells [3]) was “surface exposure of calreticulin”.
